Measured values published in the supplement of paper PMC9151546.
Single values are uncertain, as repeats are few or missing.

What was measured:
CHO-K1 [1] = experiment: micronucleus frequency (% of nucleated events); higher = more micronuclei (genotoxic)
CHO-K1 [2] = experiment: hypodiploid nuclei frequency (% of nucleated events); higher = more hypodiploid events (aneugenic)
Protocol: (§1)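 Flow-cytometric in vitro micronucleus assay (Litron MicroFlow) in CHO-K1 cells in 96-well plates, 19 concentrations (4.5-200 µM, n=1 per concentration). Without S9, cells were exposed for 24 h and sampled at 48 h. With Aroclor 1254-induced rat liver S9, cells were exposed for 3-4 h and sampled at 27-28 h. Read-outs are %MN and %hypodiploid nuclei relative to nucleated events, and relative survival as the nuclei-to-bead ratio versus the 1% DMSO vehicle control (x100).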

CHO-K1 [3] = experiment: relative survival (nuclei to bead ratio vs DMSO control) (% of vehicle control); higher = more surviving cells
Protocol: as §1
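Wherever hypodiploid nuclei frequency (% of nucleated events) is given: hypodiploid nuclei gated on a flow cytometer with 488 nm excitation after SYTOX Green staining, cultures at 37 °C, positive controls vinblastine without S9 and cyclophosphamide with S9.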
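Wherever micronucleus frequency (% of nucleated events) is given: cells lysed with nuclei stained by SYTOX Green, then micronucleus-gated events counted against nucleated events by flow cytometry with 488 nm excitation.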
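Wherever relative survival (nuclei to bead ratio vs DMSO control) is given: Lysed-cell nuclei stained with SYTOX Green and counted against counting beads by flow cytometry at 488 nm excitation, with vinblastine (no S9) and cyclophosphamide (plus S9) as positive controls.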

Cc1cc(O)ccc1Cl [4-Chloro-3-methylphenol]
Details	hypodiploid nuclei frequency, CHO-K1 [2] [%]	micronucleus frequency, CHO-K1 [1] [%]	relative survival, CHO-K1 [3]
concentration: 4.5 (µM), S9 metabolic activation: with S9, exposure time: 3-4 hours	0.14	1.36	109
concentration: 4.5 (µM), S9 metabolic activation: without S9, exposure time: 24 hours	0.48	1.38	105
concentration: 5.63 (µM), S9 metabolic activation: with S9, exposure time: 3-4 hours	0.34	1.5	117
concentration: 5.63 (µM), S9 metabolic activation: without S9, exposure time: 24 hours	0.66	1.26	117
concentration: 7.04 (µM), S9 metabolic activation: with S9, exposure time: 3-4 hours	0.34	1.34	121
concentration: 7.04 (µM), S9 metabolic activation: without S9, exposure time: 24 hours	0.88	1.34	115
concentration: 8.8 (µM), S9 metabolic activation: with S9, exposure time: 3-4 hours	0.22	1.42	115
concentration: 8.8 (µM), S9 metabolic activation: without S9, exposure time: 24 hours	0.66	1.14	119
concentration: 11 (µM), S9 metabolic activation: with S9, exposure time: 3-4 hours	0.12	1.14	105
concentration: 11 (µM), S9 metabolic activation: without S9, exposure time: 24 hours	0.58	0.92	116
concentration: 13.7 (µM), S9 metabolic activation: with S9, exposure time: 3-4 hours	0.22	1.36	117
concentration: 13.7 (µM), S9 metabolic activation: without S9, exposure time: 24 hours	0.88	2.02	100
concentration: 17.2 (µM), S9 metabolic activation: with S9, exposure time: 3-4 hours	0.24	1.12	98.8
concentration: 17.2 (µM), S9 metabolic activation: without S9, exposure time: 24 hours	0.74	1.62	107
concentration: 21.5 (µM), S9 metabolic activation: with S9, exposure time: 3-4 hours	0.14	1.52	92.8
concentration: 21.5 (µM), S9 metabolic activation: without S9, exposure time: 24 hours	0.78	1.54	98.1
concentration: 26.8 (µM), S9 metabolic activation: with S9, exposure time: 3-4 hours	0.24	2.22	100
concentration: 26.8 (µM), S9 metabolic activation: without S9, exposure time: 24 hours	0.68	1.66	113
concentration: 33.6 (µM), S9 metabolic activation: with S9, exposure time: 3-4 hours	0.44	4.1	90.8
concentration: 33.6 (µM), S9 metabolic activation: without S9, exposure time: 24 hours	0.78	1.38	147
concentration: 41.9 (µM), S9 metabolic activation: with S9, exposure time: 3-4 hours	0.56	4.12	68.7
concentration: 41.9 (µM), S9 metabolic activation: without S9, exposure time: 24 hours	1.16	1.76	104
concentration: 52.4 (µM), S9 metabolic activation: with S9, exposure time: 3-4 hours	0.36	3.52	52.3
concentration: 52.4 (µM), S9 metabolic activation: without S9, exposure time: 24 hours	1.1	1.74	114
concentration: 65.5 (µM), S9 metabolic activation: with S9, exposure time: 3-4 hours	0.38	2.56	58.7
concentration: 65.5 (µM), S9 metabolic activation: without S9, exposure time: 24 hours	1.54	2.1	97.6
concentration: 81.9 (µM), S9 metabolic activation: with S9, exposure time: 3-4 hours	0.44	2.15	46.5
concentration: 81.9 (µM), S9 metabolic activation: without S9, exposure time: 24 hours	1.36	2.04	100
concentration: 102 (µM), S9 metabolic activation: with S9, exposure time: 3-4 hours	0.2	2.32	49.4
concentration: 102 (µM), S9 metabolic activation: without S9, exposure time: 24 hours	2	2.24	94.3
concentration: 128 (µM), S9 metabolic activation: with S9, exposure time: 3-4 hours	0.38	2.61	47.2
concentration: 128 (µM), S9 metabolic activation: without S9, exposure time: 24 hours	2.58	3.1	74.7
concentration: 160 (µM), S9 metabolic activation: with S9, exposure time: 3-4 hours	0.54	2.5	46.5
concentration: 160 (µM), S9 metabolic activation: without S9, exposure time: 24 hours	2.8	2.82	78.5
concentration: 200 (µM), S9 metabolic activation: with S9, exposure time: 3-4 hours	0.42	2.24	51.4
concentration: 200 (µM), S9 metabolic activation: without S9, exposure time: 24 hours	3.06	4.14	68.5

COc1ccccc1N [2-Anisidine]
Details	hypodiploid nuclei frequency, CHO-K1 [2] [%]	micronucleus frequency, CHO-K1 [1] [%]	relative survival, CHO-K1 [3]
concentration: 4.48 (µM), S9 metabolic activation: with S9, exposure time: 3-4 hours	0.18	1.12	122
concentration: 4.48 (µM), S9 metabolic activation: without S9, exposure time: 24 hours	0.94	1.18	110
concentration: 5.6 (µM), S9 metabolic activation: with S9, exposure time: 3-4 hours	0.2	1.12	118
concentration: 5.6 (µM), S9 metabolic activation: without S9, exposure time: 24 hours	0.8	1.2	118
concentration: 7 (µM), S9 metabolic activation: with S9, exposure time: 3-4 hours	0.12	0.98	114
concentration: 7 (µM), S9 metabolic activation: without S9, exposure time: 24 hours	0.82	1	113
concentration: 8.75 (µM), S9 metabolic activation: with S9, exposure time: 3-4 hours	0.16	1.66	96.7
concentration: 8.75 (µM), S9 metabolic activation: without S9, exposure time: 24 hours	0.78	1.16	106
concentration: 10.9 (µM), S9 metabolic activation: with S9, exposure time: 3-4 hours	0.28	1.16	107
concentration: 10.9 (µM), S9 metabolic activation: without S9, exposure time: 24 hours	0.92	1.42	111
concentration: 13.7 (µM), S9 metabolic activation: with S9, exposure time: 3-4 hours	0.14	1.14	93.7
concentration: 13.7 (µM), S9 metabolic activation: without S9, exposure time: 24 hours	1.38	1.1	103
concentration: 17.1 (µM), S9 metabolic activation: with S9, exposure time: 3-4 hours	0.34	1.2	93.1
concentration: 17.1 (µM), S9 metabolic activation: without S9, exposure time: 24 hours	1.08	1.2	117
concentration: 21.4 (µM), S9 metabolic activation: with S9, exposure time: 3-4 hours	0.28	1.04	98.9
concentration: 21.4 (µM), S9 metabolic activation: without S9, exposure time: 24 hours	0.86	1.06	94.7
concentration: 26.7 (µM), S9 metabolic activation: with S9, exposure time: 3-4 hours	0.24	1.06	122
concentration: 26.7 (µM), S9 metabolic activation: without S9, exposure time: 24 hours	0.9	1.44	108
concentration: 33.4 (µM), S9 metabolic activation: with S9, exposure time: 3-4 hours	0.42	1.1	136
concentration: 33.4 (µM), S9 metabolic activation: without S9, exposure time: 24 hours	0.76	1.86	122
concentration: 41.7 (µM), S9 metabolic activation: with S9, exposure time: 3-4 hours	0.12	1.18	132
concentration: 41.7 (µM), S9 metabolic activation: without S9, exposure time: 24 hours	1.02	1.32	115
concentration: 52.2 (µM), S9 metabolic activation: with S9, exposure time: 3-4 hours	0.26	1	139
concentration: 52.2 (µM), S9 metabolic activation: without S9, exposure time: 24 hours	0.8	1.52	112
concentration: 65.2 (µM), S9 metabolic activation: with S9, exposure time: 3-4 hours	0.26	1	124
concentration: 65.2 (µM), S9 metabolic activation: without S9, exposure time: 24 hours	0.98	1.34	106
concentration: 81.5 (µM), S9 metabolic activation: with S9, exposure time: 3-4 hours	0.16	0.76	116
concentration: 81.5 (µM), S9 metabolic activation: without S9, exposure time: 24 hours	1.2	1.52	101
concentration: 102 (µM), S9 metabolic activation: with S9, exposure time: 3-4 hours	0.22	1	118
concentration: 102 (µM), S9 metabolic activation: without S9, exposure time: 24 hours	1.28	1.98	102
concentration: 127 (µM), S9 metabolic activation: with S9, exposure time: 3-4 hours	0.34	0.9	118
concentration: 127 (µM), S9 metabolic activation: without S9, exposure time: 24 hours	1.62	1.54	106
concentration: 159 (µM), S9 metabolic activation: with S9, exposure time: 3-4 hours	0.18	1	98.5
concentration: 159 (µM), S9 metabolic activation: without S9, exposure time: 24 hours	1.9	1.9	99.5
concentration: 199 (µM), S9 metabolic activation: with S9, exposure time: 3-4 hours	0.26	0.98	103
concentration: 199 (µM), S9 metabolic activation: without S9, exposure time: 24 hours	2.42	2	91

Cc1ccc([N+](=O)[O-])cc1C [1,2-Dimethyl-4-nitrobenzene]
Details	hypodiploid nuclei frequency, CHO-K1 [2] [%]	micronucleus frequency, CHO-K1 [1] [%]	relative survival, CHO-K1 [3]
concentration: 4.5 (µM), S9 metabolic activation: with S9, exposure time: 3-4 hours	0.34	1.4	104
concentration: 4.5 (µM), S9 metabolic activation: without S9, exposure time: 24 hours	0.72	2.52	116
concentration: 5.63 (µM), S9 metabolic activation: with S9, exposure time: 3-4 hours	0.24	0.98	121
concentration: 5.63 (µM), S9 metabolic activation: without S9, exposure time: 24 hours	0.5	2.52	103
concentration: 7.04 (µM), S9 metabolic activation: with S9, exposure time: 3-4 hours	0.22	1.08	135
concentration: 7.04 (µM), S9 metabolic activation: without S9, exposure time: 24 hours	0.64	2.52	105
concentration: 8.8 (µM), S9 metabolic activation: with S9, exposure time: 3-4 hours	0.28	1.6	111
concentration: 8.8 (µM), S9 metabolic activation: without S9, exposure time: 24 hours	0.78	2.64	107
concentration: 11 (µM), S9 metabolic activation: with S9, exposure time: 3-4 hours	0.16	0.86	107
concentration: 11 (µM), S9 metabolic activation: without S9, exposure time: 24 hours	0.7	1.92	131
concentration: 13.7 (µM), S9 metabolic activation: with S9, exposure time: 3-4 hours	0.1	1.12	150
concentration: 13.7 (µM), S9 metabolic activation: without S9, exposure time: 24 hours	0.88	2.22	103
concentration: 17.2 (µM), S9 metabolic activation: with S9, exposure time: 3-4 hours	0.32	1.5	137
concentration: 17.2 (µM), S9 metabolic activation: without S9, exposure time: 24 hours	0.82	2.12	119
concentration: 21.5 (µM), S9 metabolic activation: with S9, exposure time: 3-4 hours	0.14	1	124
concentration: 21.5 (µM), S9 metabolic activation: without S9, exposure time: 24 hours	0.58	2.02	109
concentration: 26.8 (µM), S9 metabolic activation: with S9, exposure time: 3-4 hours	0.16	1.26	99.9
concentration: 26.8 (µM), S9 metabolic activation: without S9, exposure time: 24 hours	0.66	2.18	119
concentration: 33.6 (µM), S9 metabolic activation: with S9, exposure time: 3-4 hours	0.34	2	128
concentration: 33.6 (µM), S9 metabolic activation: without S9, exposure time: 24 hours	0.86	1.68	105
concentration: 41.9 (µM), S9 metabolic activation: with S9, exposure time: 3-4 hours	0.26	1.42	106
concentration: 41.9 (µM), S9 metabolic activation: without S9, exposure time: 24 hours	0.88	2.74	101
concentration: 52.4 (µM), S9 metabolic activation: with S9, exposure time: 3-4 hours	0.24	1.56	117
concentration: 52.4 (µM), S9 metabolic activation: without S9, exposure time: 24 hours	0.94	1.94	101
concentration: 65.5 (µM), S9 metabolic activation: with S9, exposure time: 3-4 hours	0.38	1.4	114
concentration: 65.5 (µM), S9 metabolic activation: without S9, exposure time: 24 hours	0.9	3.6	101
concentration: 81.9 (µM), S9 metabolic activation: with S9, exposure time: 3-4 hours	0.44	1.72	120
concentration: 81.9 (µM), S9 metabolic activation: without S9, exposure time: 24 hours	1.06	2.66	106
concentration: 102 (µM), S9 metabolic activation: with S9, exposure time: 3-4 hours	0.26	1.28	112
concentration: 102 (µM), S9 metabolic activation: without S9, exposure time: 24 hours	1.32	2.2	85.4
concentration: 128 (µM), S9 metabolic activation: with S9, exposure time: 3-4 hours	0.26	1.58	110
concentration: 128 (µM), S9 metabolic activation: without S9, exposure time: 24 hours	1.14	2.84	105
concentration: 160 (µM), S9 metabolic activation: with S9, exposure time: 3-4 hours	0.3	1.36	106
concentration: 160 (µM), S9 metabolic activation: without S9, exposure time: 24 hours	1.94	2.42	105
concentration: 200 (µM), S9 metabolic activation: with S9, exposure time: 3-4 hours	0.36	1.9	118
concentration: 200 (µM), S9 metabolic activation: without S9, exposure time: 24 hours	1.92	3.16	83.5
